Laboratory results: PMC12136788
Where a chain is given by its changes, count along the chain named. The list shows a part of the results.

T1: UNK ZnF1-3 (human, UniProt Q9C0B0 31-174)
T1 sequence: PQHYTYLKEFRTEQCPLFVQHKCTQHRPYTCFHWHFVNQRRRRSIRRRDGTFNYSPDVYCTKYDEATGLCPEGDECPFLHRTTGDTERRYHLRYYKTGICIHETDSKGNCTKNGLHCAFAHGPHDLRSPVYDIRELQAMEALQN

B1: chr16:94690367:94690368:+_ENSMUSG00000040785_ENSMUST00000117648|mus_hu|motif|central (ssRNA)
RNA: GGGAGUUCUACAGUCCGACGAUCCUAUAUUUACCACUGUCUAAAAGUCACAAAACAAUAUCUAAUUUUUUCAUGGUUUCGGAUGCAGUUACAGUUUUGUUCUUAGGUCACAGUACAAGACUGCAUGCAUACUUUACACAAAUACAACAGAGGAUUGAGCAUCA
B2: chr1:45244325:45244326:+_ENSG00000142937_ENST00000396651|hu_hu|FALSE|FALSE (ssRNA)
RNA: GGGAGUUCUACAGUCCGACGAUCUUACAUGGGUGAAGACAAAACAAGGAUUUAUUUGCCUUUGCGGGCCUUGAUUUUCCUAAGAUAGAACUCCAACUCUUUGCCCUCUAGCACAUAGCCAUCUGCUCGGCCACACUGUCCCGGCAACAGAGGAUUGAGCAUCA
B3: chr9:95050471:95050472:-_ENSG00000196305_ENST00000443024|hu_hu|motif|central (ssRNA)
RNA: GGGAGUUCUACAGUCCGACGAUCAUCCCAUCCAAAUCUUCUGUCAACAUGAAACCCACUCUGGUGAGCAUAUCUUGUAACGGUAUCUUUAAUUGUACCCGCAAGUAUAUGUCCAUAGUGAGGCAGUCCAGUUGCAAAAGGAGGCAACAGAGGAUUGAGCAUCA
B4: 89536129_89544291_861_3pUTR_ENSG00000138138_ENST00000328142|human|control|control (ssRNA)
RNA: GGGAGUUCUACAGUCCGACGAUCUUCAUCAUGGCUGUAGCUUCAUGGUCAGAACUUGAACGGUUUCGUAGAAAGGAGUCUAUUUCAUCUAUAAAGAUGAUGGAUGGUUGUAGCUUUAUGGCAAGGGAGAAGACAGCAGCAGCCCAACAGAGGAUUGAGCAUCA
B5: chr2:135777783:135777784:+_ENSMUSG00000039943_ENSMUST00000110109|mus_hu|FALSE|FALSE (ssRNA)
RNA: GGGAGUUCUACAGUCCGACGAUCGAUGGCUUGAAUUACAUCCUUAAAAAGGAUAUCUGUACACAUUGCUUUUCCAUGAGUUAUUAUUGGUUCUUGGUCUUCACCUUUUCCAUCCCAGCAGUCAAGUUCAACACAUCUGCAACCCAACAGAGGAUUGAGCAUCA
B6: chr3:105770834:105770835:+_ENSMUSG00000000561_ENSMUST00000010278|mus_mus|motif|central (ssRNA)
RNA: GGGAGUUCUACAGUCCGACGAUCACAGGAAAACACUCAUCUCUCACACACAACACCAAGGAAGGAAAGGGUGAACAAGAGCGGCACUGCAGGGCCAAAUUUAUUCACCCAGAAAAUGGAUUUGACUCAGUAUAACAGGGACUUCAACAGAGGAUUGAGCAUCA
B7: chr2:183846084:183846085:-_ENSG00000061676_ENST00000360982|hu_mus|motif|central (ssRNA)
RNA: GGGAGUUCUACAGUCCGACGAUCGAGGUAUUGCACGUAGUACCUCUGCAUGACAGGCCCAUACUUCCUGACAUGUGCUCGGAGCUCUUCCAUGUAAAAUAUUAGCUCAGCAAUGUGCUUAUCUAUAAAGUCAUCUGCACUCUUCAACAGAGGAUUGAGCAUCA
B8: chr8:104447970:104447971:+_ENSG00000164934_ENST00000297579|hu_hu|hu_hu_hu_mus_False|58_58 (ssRNA)
RNA: GGGAGUUCUACAGUCCGACGAUCAUACACUUCCCUGCUUCGGCUCUUGUCCACAGGAAAGAUUCUAAUAGACUUAUCGAAACUAGCAGACACAAAUUCCUUCCCAGUGGGAGAGUAGUCCACAUCAAGUACUGCAGACACGUGCAACAGAGGAUUGAGCAUCA
B9: chr1:165623523:165623524:+_ENSG00000143198_ENST00000367886|perfect_dup|FALSE|FALSE (ssRNA)
RNA: GGGAGUUCUACAGUCCGACGAUCAUAGCCAUAAGCAUAAAGAACUCGUCCAACAAUCCAGGCCAAGCCCAGGCCAGAAGCUAUACGCGGGUGGUAAACACCUCCAACAGCUAGAAAAAAUAAGAAGGGAGGAUACACUUCCAACAACAGAGGAUUGAGCAUCA
B10: 110719532_110719652_107_3pUTR_ENSG00000174437_ENST00000539276|human|control|control (ssRNA)
RNA: GGGAGUUCUACAGUCCGACGAUCCGUUGACGCCGAAGUGGCCCAGCACCUCCUCCACCGUCUUGGUGUGCGCGUUCUCCAUGGCUUCGGGGGCCCGGCCGGCCUCGCCUCCCGUCCCCGCGGCCUCCUCGCCUCCGCCUCGCACAACAGAGGAUUGAGCAUCA
B11: 53458154_53458274_1141_CDS_ENSG00000177613_ENST00000331173|human|control|control (ssRNA)
RNA: GGGAGUUCUACAGUCCGACGAUCUAAUGGCCCUCCCCUCAUCUCAUGUGAGGAAGGGCCACGAGUGUCAUGACCAGAGGCAUGAUGCAUGGGGGGACCCUGAUGGGGUGGACCCAGAUAACCUCUGGGCUCCACUUCUCCAGUCAACAGAGGAUUGAGCAUCA
B12: chr8:95500983:95500984:-_ENSG00000164944_ENST00000437199|hu_hu|hu_hu_hu_mus_True|8_98 (ssRNA)
RNA: GGGAGUUCUACAGUCCGACGAUCAGAACACAUCUAUUCGUGUAAAGACCGUACAUGACGGCCUCUACCACUGCCUCCACUAACAAACUUUCCUCUCGAGCCUCCACUGCCGCUAUUUGUACUAGCCCCAGGAAGGUCCAGGCCCAACAGAGGAUUGAGCAUCA
B13: 153191644_153191764_77_5pUTR_ENSMUSG00000023150_ENSMUST00000023918|mouse|control|control (ssRNA)
RNA: GGGAGUUCUACAGUCCGACGAUCGGGUACUCGCGGGAACUCGCUCGCCGCCACGACGCGCCCAGCACCUCCGAGCGACUGACCGACCUCCACGCGCGUCCCGAACACACUGCCACCGCCGCCGCCGCCGCGCGCGCUCGCGCCCAACAGAGGAUUGAGCAUCA
B14: 102315511_102315631_8827_3pUTR_ENSG00000166135_ENST00000299163|human|control|control (ssRNA)
RNA: GGGAGUUCUACAGUCCGACGAUCUAUAUUCAAGAGGUAAUAAAAACCUGGCCCAAGCUUAGCUUAGAUGAUGGGUUAAGGAGCACAGCUUUCCUGAUAGUUCUGACCUCAAUGACCAAGUGAAUAGGUUUUAAGUAAACGGAACAACAGAGGAUUGAGCAUCA
B15: chr16:94690093:94690094:+_ENSMUSG00000040785_ENSMUST00000117648|mus_hu|mus_mus_mus_hu_True|28_58 (ssRNA)
RNA: GGGAGUUCUACAGUCCGACGAUCGGGCUGGGAUGACGGACACACAGCCUCGAUUCCAGGGGGAAAAAGUCUUAGUCAAUACUAAUUAAAAAGUGUUAAUGAUUUUUAUUACCAAAAUUACAUCUAUAAAAGAUGAAAAGCAAACAACAGAGGAUUGAGCAUCA
B16: chr8:104447970:104447971:+_ENSG00000164934_ENST00000297579|hu_hu|hu_hu_hu_mus_False|18_98 (ssRNA)
RNA: B8 RNA with G42A, C45U, G78A, A81G, A84G, G117A
B17: chr14:66974463:66974464:+_ENSMUSG00000022044_ENSMUST00000074523|mus_hu|mus_mus_mus_hu_False|48_58 (ssRNA)
RNA: GGGAGUUCUACAGUCCGACGAUCUUGUAGGACGACUUAUUCAGGGGAUCGGCCAGGAAGCAGGAGCAGAACAAGGACACUAGUGGGAGUUCCUUCAUCUUCUCUUUGUAGGCAGCAAGGGUCAUGUUUCUGGGAUCUGGUGGCCAACAGAGGAUUGAGCAUCA
B18: chr1:220276048:220276049:+_ENSG00000067704_ENST00000302637|hu_hu|hu_hu_hu_mus_True|68_108 (ssRNA)
RNA: GGGAGUUCUACAGUCCGACGAUCGCAAACAGCUUCAUUGGCGGGAAUUGUCCAAGGCUGGGUGGUCCAGACCAAAACGCUAACAGGGGAUGAGGCAUCUGUAAGAGACUCCAACUUCGGAGGAGGUCUCAGGAGGGGGAAUCUCAACAGAGGAUUGAGCAUCA
B19: chr14:62214197:62214198:+_ENSG00000100644_ENST00000337138|hu_mus|motif|central (ssRNA)
RNA: GGGAGUUCUACAGUCCGACGAUCAAAGCAUUAUUUUCAUGUAAAACAUGAAAAAAAUGAGUAAAAAGUUUUCAACUGCCGGUGAUCAUGAUGAGAAUUUACUGCUUUCUUAAAAAAUUAUAUUGGCAUUUCAUUAAAAAUAAUCAACAGAGGAUUGAGCAUCA
B20: 65460711_65465984_1206_CDS_ENSG00000153914_ENST00000334121|human|control|control (ssRNA)
RNA: GGGAGUUCUACAGUCCGACGAUCACUCCUUGACUUCCGUCUCUCCCUUGAUUUAGAGCGUUUUUUAUGUGGGCUCUUAGAUCUACGUCUGUCUUUCUGUCUUGAACGUGAUCUAUUAUGGGAUCUACUCCUGUGUUUUGAUUGCAACAGAGGAUUGAGCAUCA
B21: chr11:69480760:69480761:-_ENSMUSG00000059796_ENSMUST00000163666|mus_hu|FALSE|FALSE (ssRNA)
RNA: GGGAGUUCUACAGUCCGACGAUCUUUUGGGAGAAGAGCCGGCGCCUGGGGCAAGAGCCUACCCCAAAGAAAAGGGUGUCUAAAAUGUUCACGGUUCCUUCUUUUGCCUCAAAAAGUGACAUUUAUUCAAAGAAAAAAAAUGACCAACAGAGGAUUGAGCAUCA
B22: chr9:91931296:91931297:+_ENSG00000123975_ENST00000314355|hu_hu|hu_hu_hu_mus_True|98_108 (ssRNA)
RNA: GGGAGUUCUACAGUCCGACGAUCAGAUUGACGAUCCCCAGAUAAACUUCAUUUUUGUUGUUCUUUUGGAAGAGGUCGUCUAAAGAGAAGAAUAUGCGGUUCUGGCUCAUGAAUCAUGUAAUGAACCCAUCCUAGACUCUGUUGCAACAGAGGAUUGAGCAUCA

target: T1, UNK ZnF1-3; test: nsRBNS (natural sequence RNA bind-n-seq); RBNS binding buffer (assumed for nsRBNS): 25 mM Tris pH 7.5, 150 mM KCl, 3 mM MgCl2, 0.01% Triton X-100, 500 ug/ml BSA, 20 U/ml SUPERase-In, 4 C; UNK is unkempt and MSI1 is Musashi-1; names of the RNAs are library labels; protein concentration not given here; high values mean tight binding

Binder | binding signal
B1 | 0.512 enrichment R
B2 | 1.01 enrichment R
B3 | 0.484 enrichment R
B4 | 1.47 enrichment R
B5 | 0.864 enrichment R
B6 | 1.49 enrichment R
B7 | 0.719 enrichment R
B8 | 0.897 enrichment R
B9 | 1.6 enrichment R
B10 | 0.973 enrichment R
B11 | 0.71 enrichment R
B12 | 0.984 enrichment R
B13 | 1.22 enrichment R
B14 | 2.01 enrichment R
B15 | 1.62 enrichment R
B16 | 0.912 enrichment R
B17 | 2.47 enrichment R
B18 | 2.42 enrichment R
B19 | 2.16 enrichment R
B20 | 0.22 enrichment R
B21 | 1.82 enrichment R
B22 | 0.959 enrichment R
